Experimental data reported in PubChem BioAssay (NCATS).
The shares of active, inactive and inconclusive entries below differ from those in the screen. For some of these results: Potencies of inconclusive entries are left out as doubtful fits. The source made the active and inactive calls. Unless noted, calls come from the whole dose curve; as a rule, active = well fitted curve in the direction sought with a large enough effect; inconclusive = small, poorly fitted or top-dose-only effect, or another doubt; inactive = no such curve, though single readings can be large; an effect the other way counts as inactive or inconclusive.

Experiments:
[1] = tested on: Nanoluciferase (engineered Oplophorus gracilirostris luciferase); assay: Primary Nanoluciferase (NLuc) qHTS assay for identification of artifact compounds. (AID 1845222)
Procedure, shortened: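 Luminescence from secreted NLuc (filtered, 1:55-diluted S16 cell medium) read 5 min after Nano-Glo substrate; compounds preincubated 15 min, RT. Hill fits of inhibition normalized to DMSO and no-enzyme.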

[2] = qHTS of pediatric cancer cell lines to identify multiple opportunities for drug repurposing: Confirmatory screen for SJ-GBM2 cells (AID 1347116); note: nearly all actives have a fitted effect of over 60% in size
Procedure, shortened: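 Viability measured as metabolically active cells via CellTiter-Glo luminescence following 48 hours of compound exposure, 11-point dilutions in confirmatory testing. 500-1,000 cells/well plated 5 hours before dosing; controls were DMSO and 2.3 µM bortezomib.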

[3] = qHTS of pediatric cancer cell lines to identify multiple opportunities for drug repurposing: Confirmatory screen for OHS-50 cells (AID 1347128);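 note: compound exposure lasted 48 h at 37 degrees C; nearly all actives have a fitted effect of over 55% in size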
Procedure, shortened: (§1)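 Cells (500-1,000/well) rested 5 h, then received compounds for 48 h; metabolically active cells were measured by CellTiter-Glo luminescence. Final concentrations spanned up to 46 µM (MIPE, 11-point) or 0.59 nM-46 µM (NPC, 8-point) in primary screens, 11-point in follow-ups.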

[4] = Quantitative High-Throughput drug screen in 47 multiple myeloma cell lines against the NCATS MIPE library collection: KHM11_PLB cell viability assay (AID 1918962); conditions: KHM11 myeloma cell viability, CellTiter-Glo ATP luminescence, 48 h; series mostly up to 45.8 µM; note: nearly all actives have a fitted effect of over 35% in size
Procedure, shortened: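 Approved and investigational drugs from MIPE 4.0 were added by pin tool to 500 cells per well. After 48 hours at 37C, ATP-based CellTiter-Glo luminescence indicated remaining viability.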

[5] = Quantitative High-Throughput drug screen in 47 multiple myeloma cell lines against the NCATS MIPE library collection: JIM1_ECACC cell viability assay (AID 1918964)
Procedure, shortened: (§2)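 Viability readout: CellTiter-Glo luminescence following 5 min room-temperature incubation with reagent. Prior exposure: 48 h, 37C, humidified 5% CO2, 500 cells per well.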

[6] = Quantitative High-Throughput drug screen in 47 multiple myeloma cell lines against the NCATS MIPE library collection: MMM1_PLB cell viability assay (AID 1918976); note: nearly all actives have a fitted effect of over 35% in size
Procedure, shortened: (§3)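 ATP-based luminescence (CellTiter-Glo, 5 min RT incubation) quantified surviving cells following two days' treatment with MIPE 4.0 agents at 37 °C, 5% CO2.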

[7] = Quantitative High-Throughput drug screen in 47 multiple myeloma cell lines against the NCATS MIPE library collection: LP1_DSMZ cell viability assay (AID 1918982); note: nearly all actives have a fitted effect of over 35% in size
Procedure, shortened: as §3

[8] = Quantitative High-Throughput drug screen in 47 multiple myeloma cell lines against the NCATS MIPE library collection: L363_DSMZ cell viability assay (AID 1918984); conditions: L363 myeloma viability, CellTiter-Glo ATP luminescence, 48 h; series mostly up to 45.8 µM; note: nearly all actives have a fitted effect of over 40% in size
Procedure, shortened: as §3

[9] = Quantitative High-Throughput drug screen in 47 multiple myeloma cell lines against the NCATS MIPE library collection: OCIMY7_PLB cell viability assay (AID 1918987); conditions: OCI-MY7 myeloma viability, CellTiter-Glo ATP, 48 h; viability (% of DMSO): at 45.8 µM (top of the series); note: nearly all actives have a fitted effect of over 65% in size
Procedure, shortened: as §3

[10] = Quantitative High-Throughput drug screen in 47 multiple myeloma cell lines against the NCATS MIPE library collection: U266_ATCC cell viability assay (AID 1919864); note: nearly all actives have a fitted effect of over 35% in size
Procedure, shortened: as §3

[11] = Quantitative High-Throughput drug screen in 47 multiple myeloma cell lines against the NCATS MIPE library collection: OPM2_DSMZ cell viability assay (AID 1919872); note: nearly all actives have a fitted effect of over 30% in size
Procedure, shortened: as §2

[12] = qHTS of pediatric cancer cell lines to identify multiple opportunities for drug repurposing: Primary screen for TC32 cells (AID 1347089); note: nearly all actives have a fitted effect of over 60% in size
Procedure, shortened: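 Luminescent CellTiter-Glo read-out of metabolically active TC32 cells after 48 h compound exposure. Primary: MIPE 11-point, 0.78 nM–46 µM; NPC 8-point, 0.59 nM–46 µM. Confirmatory: 11-point dilutions.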

[13] = qHTS of pediatric cancer cell lines to identify multiple opportunities for drug repurposing: Primary screen for NB-EBc1 cells (AID 1347095)
Procedure, shortened: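 CRCs from 8- or 11-point titrations (lowest final 0.59 nM NPC, 0.78 nM MIPE). Cell viability: CellTiter-Glo after 48 h incubation, 15 min room-temperature development, luminescence imaging.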

[14] = A High-Content qHTS Against Drug Library for the Identification of Small Molecules that Inhibit DYT1 Early Onset Primary Dystonia-Associated Cell Pathology (AID 1645839; calls by dose curve)
Procedure, shortened: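 High-content imaging quantified EGFP-TorsinA mislocalization in HEK293-derived cells inducibly expressing DYT1 mutant torsinA, after 48 h exposure to compound given together with tetracycline induction. Cell count served as a toxicity channel alongside %pathology.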

astro = assay: Drug repurposing screens with cells derived from glioblastoma tumor samples (AID 1345199); conditions: viability, ATP luminescence, 48 h; series mostly up to 45.9 µM; note: nearly all actives have a fitted effect of over 40% in size
Procedure, shortened: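 Primary testing used CD133+ neurospheres from four GBM patients, seven concentrations, 48 h exposure and ATP-based viability; confirmation added three slower-growing patient lines.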

[15] = qHTS of pediatric cancer cell lines to identify multiple opportunities for drug repurposing: Confirmatory screen for Rh18 cells (AID 1347125); note: nearly all actives have a fitted effect of over 55% in size
Procedure, shortened: as §1

[16] = Quantitative High-Throughput drug screen in 47 multiple myeloma cell lines against the NCATS MIPE library collection: KMS20_JCRB cell viability assay (AID 1918973); conditions: CellTiter-Glo ATP, 48 h; viability (% of DMSO): at 45.8 µM (top of the series); note: nearly all actives have a fitted effect of over 45% in size
Procedure, shortened: as §2

[17] = Quantitative High-Throughput drug screen in 47 multiple myeloma cell lines against the NCATS MIPE library collection: UTMC2_PLB cell viability assay (AID 1919868); conditions: CellTiter-Glo ATP luminescence, 48 h; series mostly up to 45.8 µM; note: nearly all actives have a fitted effect of over 55% in size
Procedure, shortened: as §3

[18] = qHTS of pediatric cancer cell lines to identify multiple opportunities for drug repurposing: Primary screen for SK-N-MC cells (AID 1347093); conditions: SK-N-MC viability, CellTiter-Glo luminescence, 48 h; activity change, negative = cytotoxic: at 46 µM (top of the series)
Procedure, shortened: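 Metabolically active cells were quantified by ATP-dependent luminescence (CellTiter-Glo, 15 min at room temperature) following 48 h treatment. Cells had been plated at 500-1,000 per well and settled for 5 h beforehand.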

[19] = qHTS of pediatric cancer cell lines to identify multiple opportunities for drug repurposing: Primary screen for A673 cells (AID 1347092); conditions: A673 Ewing sarcoma viability, CellTiter-Glo ATP luminescence, 48 h; activity change, negative = cytotoxic: at 46 µM (top of the series); note: nearly all actives have a fitted effect of over 45% in size
Procedure, shortened: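 A673 cells (500-1,000 cells/well in growth media) were pre-incubated 5 h at 37 degrees C, then exposed to compounds for 48 h. Viability was read as CellTiter-Glo luminescence; concentration-response curves came directly from the primary screen.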
Potency is the fitted concentration of half-maximal effect; tags give direction and shape of the fitted curve.

In the case of `Cc1nc(Nc2cnn(C3CCNCC3)c2)nc2c1N(C)C(=O)c1cc3ccccc3cc1N2C`, the Potency [1] is reported as inconclusive [inhibitor, single point].
In the case of `Cc1cnc(Nc2ccc(CN3CCOCC3)cc2)nc1Nc1cccc(S(=O)(=O)NC(C)(C)C)c1`, the Potency [2] is reported as inconclusive [cytotoxic, full curve], the Potency [3] is reported as active: 5220 nM and the Potency [4] is reported as inconclusive [cytotoxic, partial curve]. The Potency [5] was inconclusive [cytotoxic, single point], the Potency [6] was active: 10500 nM and the Potency [7] was active: 5900 nM. The Potency [8] was inconclusive [cytotoxic, single point], the Potency [9] was active: 526 nM and the Potency [10] was active: 7430 nM. For the same compound, the Potency [11] was active: 4690 nM.
For `CC[C@]12CCCN3CCc4c(n(c5ccccc45)C(=O)C1)[C@@H]32`, the Potency [12] was inconclusive [cytotoxic, single point], the Potency [13] was active: 1880 nM and the Potency [14] was inconclusive [inhibitor, partial curve, poor fit]. For the same compound, the Potency (astro) was inconclusive [inhibitor, partial curve].
With `CC(C)c1cc(C(=O)N2Cc3ccc(CN4CCN(C)CC4)cc3C2)c(O)cc1O` the Potency [12] was active: 1040 nM, the Potency [2] was inconclusive [cytotoxic, full curve] and the Potency [15] was active: 657 nM. For the same compound, the Potency [3] was inconclusive [cytotoxic, full curve], the Potency [4] was active: 93.5 nM and the Potency [5] was active: 74.3 nM. The Potency [16] was active: 187 nM, the Potency [6] was active: 418 nM and the Potency [7] was inconclusive [cytotoxic, full curve]. For the same compound, the Potency [8] was active: 59 nM and the Potency [17] was active: 372 nM.
For `Cc1[nH]c(/C=C2\C(=O)Nc3ccc(F)cc32)c(C)c1C(=O)NC[C@H](O)CN1CCOCC1`, the Potency [1] was inconclusive [inhibitor, partial curve].
For `CC(=O)NCC(=O)N1[C@H]2CC[C@H]1c1cc(Nc3ncc(C(F)(F)F)c(NC4CCC4)n3)ccc12`, the Potency [18] was active: 118 nM, the Potency [15] was active: 2930 nM and the Potency [3] was active: 2610 nM. The Potency [4] was active: 526 nM, the Potency [5] was active: 332 nM and the Potency [16] was active: 1320 nM. The Potency [6] was active: 1660 nM, the Potency [9] was active: 93.5 nM and the Potency [10] was active: 5900 nM. For the same compound, the Potency [17] was active: 118 nM.
For `CN(C)CCCn1cc(C2=C(c3c[nH]c4ccccc34)C(=O)NC2=O)c2ccccc21`, the Potency [1] was inconclusive [inhibitor, single point].
In the case of `C=CCNc1c(O)cc2c(O)c1C[C@@H](C)C[C@H](OC)[C@@H](O)[C@@H](C)C=C(C)[C@H](OC(N)=O)[C@@H](OC)C=CC=C(C)C(=O)N2`, the Potency [18] is reported as active: 1180 nM, the Potency [5] is reported as active: 209 nM and the Potency [16] is reported as active: 372 nM. For the same compound, the Potency [9] was active: 209 nM, the Potency [10] was active: 418 nM and the Potency [17] was active: 418 nM.
With `Cn1cc(-c2cnn3c(N)c(Br)c([C@H]4CCCNC4)nc23)cn1` the Potency [12] was inconclusive [cytotoxic, full curve], the Potency [13] was active: 264 nM and the Potency [2] was inconclusive [cytotoxic, full curve]. For the same compound, the Potency [3] was inconclusive [cytotoxic, full curve], the Potency [4] was active: 526 nM and the Potency [16] was active: 1480 nM. For the same compound, the Potency [7] was inconclusive [cytotoxic, full curve], the Potency [10] was active: 7430 nM and the Potency [17] was active: 662 nM.
For `Cc1c(NC(=O)OC[C@@H]2COCCN2)cn2ncnc(Nc3ccc4c(cnn4Cc4cccc(F)c4)c3)c12`, the Potency [19] was active: 46.9 nM, the Potency [13] was inconclusive [cytotoxic, partial curve] and the Potency [2] was inconclusive [cytotoxic, single point]. The Potency [15] was inconclusive [cytotoxic, partial curve], the Potency [3] was inconclusive [cytotoxic, single point] and the Potency [4] was inconclusive [cytotoxic, single point]. For the same compound, the Potency [5] was inconclusive [cytotoxic, partial curve], the Potency [16] was active: 1870 nM and the Potency [6] was inconclusive [cytotoxic, partial curve, poor fit]. For the same compound, the Potency [7] was inconclusive [cytotoxic, partial curve], the Potency [8] was inconclusive [cytotoxic, single point] and the Potency [9] was active: 590 nM. The Potency [10] was inconclusive [cytotoxic, single point], the Potency [17] was inconclusive [cytotoxic, full curve, poor fit] and the Potency [11] was inconclusive [rising, full curve, poor fit].
For `CCOc1cc(C(C)(C)C)ccc1C1=N[C@@](C)(c2ccc(Cl)cc2)[C@@](C)(c2ccc(Cl)cc2)N1C(=O)N1CCN(CC(=O)N2CCOCC2)CC1`, the Potency [1] was “inactive”.
In the case of `OCCN1CCN(CC/C=C2/c3ccccc3Sc3ccc(C(F)(F)F)cc32)CC1`, the Potency [12] is reported as inconclusive [cytotoxic, single point], the Potency [19] is reported as inconclusive [cytotoxic, single point] and the Potency [18] is reported as inconclusive [cytotoxic, single point]. For the same compound, the Potency [14] was inconclusive [inhibitor, partial curve, poor fit] and the Potency (astro) was active: 31600 nM.
For `CC(=O)c1ccc2c(c1)N(CCCN(C)C)c1ccccc1S2`, the Potency [19] was inconclusive [cytotoxic, single point] and the Potency [14] was inconclusive [inhibitor, single point].
With `Cc1ccc2c(Br)cc(Br)c(O)c2n1` the Potency [12] was inconclusive [cytotoxic, single point], the Potency [13] was active: 2990 nM and the Potency [14] was inconclusive [inhibitor, full curve]. For the same compound, the Potency (astro) was inconclusive [inhibitor, partial curve].
With `C[C@]12CCC(=O)C=C1C=C[C@@H]1[C@@H]2CC[C@@]2(C)[C@H]1CC[C@@]21CCC(=O)O1` the Potency [19] was inconclusive [cytotoxic, partial curve, poor fit].
In the case of `COc1cc(C(=O)NC2CCN(C)CC2)c(F)cc1Nc1ncc2c(n1)N(C1CCCC1)CC(F)(F)C(=O)N2C`, the Potency [1] is reported as “inactive”.
In the case of `CC(=O)Nc1ccn(C2COC(COC(=O)c3ccccc3)O2)c(=O)n1` (stereo not drawn), the Potency [19] is reported as active: 1330 nM and the Potency (astro) is reported as inconclusive [inhibitor, partial curve].
With `OCc1c[nH]c2ccccc12` the Potency [19] was inconclusive [cytotoxic, partial curve], the Potency [13] was inconclusive [cytotoxic, partial curve, poor fit] and the Potency [14] was inconclusive [inhibitor, partial curve]. For the same compound, the Potency (astro) was inconclusive [inhibitor, partial curve].
